# Assay results published in the supplement of paper PMC8728848.
# The other results are listed elsewhere or left out.
# What was measured:
# Assay in all cases: glycan array binding signal (z-score within array); higher = stronger binding
# Details in all cases: glycan notation: IUPAC condensed, linker removed
# [1] = target: Gal(b1-4)GlcNAc(b1-2)Man(a1-3)[Gal(b1-4)GlcNAc(b1-2)Man(a1-6)]Man(b1-4)GlcNAc(b1-4)GlcNAc
# In short: (§1)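 The binding signal is a Z-score computed within each array and averaged over linkers. Arrays of the same protein sequence at different concentrations or buffers were also averaged together. Data originate from 3228 arrays in the Consortium for Functional Glycomics database, kept only where the protein sequence was available.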
# [2] = target: Gal(b1-4)GlcNAc(b1-2)Man(a1-3)[Gal(b1-4)GlcNAc(b1-2)Man(a1-6)]Man(b1-4)GlcNAc(b1-4)[Fuc(a1-6)]GlcNAc
# In short: as §1
# [3] = target: Gal(b1-4)GlcNAc(b1-2)Man(a1-3)[Gal(b1-4)GlcNAc(b1-2)][GlcNAc(b1-4)]Man(b1-4)GlcNAc(b1-4)GlcNAc
# In short: as §1
# [4] = target: Gal(b1-4)GlcNAc(b1-2)Man(a1-3)[GlcNAc(b1-2)Man(a1-6)]Man(b1-4)GlcNAc(b1-4)GlcNAc
# In short: as §1
# [5] = target: Gal(b1-4)GlcNAc(b1-2)Man(a1-3)[Man(a1-6)]Man(b1-4)GlcNAc(b1-4)GlcNAc
# In short: as §1
# [6] = target: Gal(b1-4)GlcNAc(b1-2)Man(a1-6)Man(b1-4)GlcNAc(b1-4)GlcNAc
# In short: as §1
# [7] = target: Gal(b1-4)GlcNAc(b1-2)Man(a1-6)[GlcNAc(b1-2)Man(a1-3)]Man(b1-4)GlcNAc(b1-4)GlcNAc
# In short: as §1
# [8] = target: Gal(b1-4)GlcNAc(b1-2)Man(a1-6)[Man(a1-3)]Man(b1-4)GlcNAc(b1-4)GlcNAc
# In short: as §1
# [9] = target: Gal(b1-4)GlcNAc(b1-2)[Gal(b1-4)GlcNAc(b1-4)]Man(a1-3)[Gal(b1-4)GlcNAc(b1-2)Man(a1-6)]Man(b1-4)GlcNAc(b1-4)GlcNAc
# In short: as §1
# [10] = target: Gal(b1-4)GlcNAc(b1-2)[Gal(b1-4)GlcNAc(b1-4)]Man(a1-3)[Gal(b1-4)GlcNAc(b1-2)[Gal(b1-4)GlcNAc(b1-6)]Man(a1-6)]Man(b1-4)GlcNAc(b1-4)GlcNAc
# In short: as §1
# [11] = target: Gal(b1-4)GlcNAc(b1-2)[Gal(b1-4)GlcNAc(b1-4)]Man(a1-3)[GlcNAc(b1-4)][Gal(b1-4)GlcNAc(b1-2)Man(a1-6)]Man(b1-4)GlcNAc(b1-4)GlcNAc
# In short: as §1
# [12] = target: Gal(b1-4)GlcNAc(b1-2)[Gal(b1-4)GlcNAc(b1-4)]Man(a1-3)[GlcNAc(b1-4)][Gal(b1-4)GlcNAc(b1-2)[Gal(b1-4)GlcNAc(b1-6)]Man(a1-6)]Man(b1-4)GlcNAc(b1-4)GlcNAc
# In short: as §1
# [13] = target: Gal(b1-4)GlcNAc(b1-2)[Gal(b1-4)GlcNAc(b1-6)]Man(a1-6)[Gal(b1-4)GlcNAc(b1-2)Man(a1-3)]Man(b1-4)GlcNAc(b1-4)GlcNAc
# In short: as §1
# [14] = target: Gal(b1-4)GlcNAc(b1-2)[Gal(b1-4)GlcNAc(b1-6)]Man(a1-6)[GlcNAc(b1-4)][Gal(b1-4)GlcNAc(b1-2)Man(a1-3)]Man(b1-4)GlcNAc(b1-4)GlcNAc
# In short: as §1
# [15] = target: Gal(b1-4)GlcNAc(b1-3)Gal(b1-3)GlcNAc
# In short: as §1
# [16] = target: Gal(b1-4)GlcNAc(b1-3)Gal(b1-4)Glc
# In short: as §1
# [17] = target: Gal(b1-4)GlcNAc(b1-3)Gal(b1-4)GlcNAc
# In short: as §1
# [18] = target: Gal(b1-4)GlcNAc(b1-3)Gal(b1-4)GlcNAc(b1-3)Gal(b1-4)GlcNAc
# In short: as §1
# [19] = target: Gal(b1-4)GlcNAc(b1-3)Gal(b1-4)[Fuc(a1-3)GlcNAc(b1-6)]Gal(b1-4)Glc
# In short: as §1
# [20] = target: Gal(b1-4)GlcNAc(b1-3)Gal(b1-4)[Fuc(a1-3)]GlcNAc(b1-3)Gal(b1-4)[Fuc(a1-3)]GlcNAc
# In short: as §1
# [21] = target: Gal(b1-4)GlcNAc(b1-3)GalNAc
# In short: as §1
# [22] = target: Gal(b1-4)GlcNAc(b1-3)[Gal(b1-4)GlcNAc(b1-6)]Gal(b1-4)GlcNAc
# In short: as §1
# [23] = target: Gal(b1-4)GlcNAc(b1-3)[Gal(b1-4)GlcNAc(b1-6)]GalNAc
# In short: as §1
# [24] = target: Gal(b1-4)GlcNAc(b1-3)[GlcNAc(b1-6)]Gal(b1-4)GlcNAc
# In short: as §1
# [25] = target: Gal(b1-4)GlcNAc(b1-6)Gal(b1-4)GlcNAc
# In short: as §1
# [26] = target: Gal(b1-4)GlcNAc(b1-6)GalNAc
# In short: as §1
# [27] = target: Gal(b1-4)GlcNAc(b1-6)[Gal(b1-3)]GalNAc
# In short: as §1
# [28] = target: Gal(b1-6)Gal
# In short: as §1
# [29] = target: Gal3S(b1-3)GalNAc
# In short: as §1
# [30] = target: Gal3S(b1-3)GlcNAc
# In short: as §1
# [31] = target: Gal3S(b1-3)[Fuc(a1-4)]GlcNAc
# In short: as §1
# [32] = target: Gal3S(b1-4)Glc
# In short: as §1
# [33] = target: Gal3S(b1-4)Glc6S
# In short: as §1
# [34] = target: Gal3S(b1-4)GlcNAc
# In short: as §1
# [35] = target: Gal3S(b1-4)GlcNAc6S
# In short: as §1
# [36] = target: Gal3S(b1-4)[Fuc(a1-3)]Glc
# In short: as §1
# [37] = target: Gal3S(b1-4)[Fuc(a1-3)]Glc6S
# In short: as §1
# [38] = target: Gal3S4S(b1-4)GlcNAc
# In short: as §1
# [39] = target: Gal3S6S(b1-4)GlcNAc
# In short: as §1
# [40] = target: Gal3S6S(b1-4)GlcNAc6S
# In short: as §1
# [41] = target: Gal4S(b1-4)GlcNAc
# In short: as §1
# [42] = target: Gal4S6S(b1-4)GlcNAc
# In short: as §1
# [43] = target: Gal6S(b1-3)GlcNAc
# In short: as §1
# [44] = target: Gal6S(b1-3)GlcNAc6S
# In short: as §1
# [45] = target: Gal6S(b1-4)Glc
# In short: as §1
binder,measurement,setting,value
XCL (Xerocomus chrysenteron) (protein) MSYSITLRVYQTNRDRGYFSIVEKTVWHFANGGTWSEANGAHTLTQGGSGTSGVLRFLSTKGERITVAVGVHNYKRWCDVVTGLKPDETALVINPQYYNNGGRDYVREKQLAEYSVTSAIGTKVEVVYTVAEGNNLEANVIFS,glycan array binding signal (z-score),[1],-0.32
same,glycan array binding signal (z-score),[2],-0.32
same,glycan array binding signal (z-score),[3],-0.321
same,glycan array binding signal (z-score),[4],1.04
same,glycan array binding signal (z-score),[5],-0.272
same,glycan array binding signal (z-score),[6],-0.295
same,glycan array binding signal (z-score),[7],1.04
same,glycan array binding signal (z-score),[8],-0.316
same,glycan array binding signal (z-score),[9],-0.298
same,glycan array binding signal (z-score),[10],-0.324
same,glycan array binding signal (z-score),[11],-0.322
same,glycan array binding signal (z-score),[12],-0.324
same,glycan array binding signal (z-score),[13],-0.308
same,glycan array binding signal (z-score),[14],-0.315
same,glycan array binding signal (z-score),[15],-0.314
same,glycan array binding signal (z-score),[16],-0.299
same,glycan array binding signal (z-score),[17],-0.311
same,glycan array binding signal (z-score),[18],-0.287
same,glycan array binding signal (z-score),[19],-0.311
same,glycan array binding signal (z-score),[20],-0.258
same,glycan array binding signal (z-score),[21],0.082
same,glycan array binding signal (z-score),[22],-0.331
same,glycan array binding signal (z-score),[23],-0.282
same,glycan array binding signal (z-score),[24],-0.216
same,glycan array binding signal (z-score),[25],-0.324
same,glycan array binding signal (z-score),[26],-0.271
same,glycan array binding signal (z-score),[27],1.2
same,glycan array binding signal (z-score),[28],-0.322
same,glycan array binding signal (z-score),[29],3.44
same,glycan array binding signal (z-score),[30],-0.319
same,glycan array binding signal (z-score),[31],-0.322
same,glycan array binding signal (z-score),[32],-0.269
same,glycan array binding signal (z-score),[33],-0.29
same,glycan array binding signal (z-score),[34],-0.311
same,glycan array binding signal (z-score),[35],-0.315
same,glycan array binding signal (z-score),[36],-0.313
same,glycan array binding signal (z-score),[37],-0.273
same,glycan array binding signal (z-score),[38],-0.327
same,glycan array binding signal (z-score),[39],-0.308
same,glycan array binding signal (z-score),[40],-0.308
same,glycan array binding signal (z-score),[41],-0.317
same,glycan array binding signal (z-score),[42],-0.328
same,glycan array binding signal (z-score),[43],-0.278
same,glycan array binding signal (z-score),[44],-0.321
same,glycan array binding signal (z-score),[45],-0.315
